Data taken from PubChem BioAssay AID588342 (National Center for Advancing Translational Sciences (NCATS), 2011).
Out of some 360,000 compounds screened, about 25,000 (6.9%) were called active. Inconclusive results, whose numbers are uncertain, are shown with a selection of clear calls. The call rests on the fitted dose curve; in most records, active means well fitted inhibition curve with a large enough effect; inconclusive means small, poorly fitted or top-dose-only effect; inactive means flat fitted curve, though single readings scatter. Where the call is inconclusive, the potency comes from a doubtful curve fit.

What follows are compounds tested against Luciferin 4-monooxygenase (Photinus pyralis) (UniProt P08659) (assay: qHTS profiling assay for firefly luciferase inhibitor/activator using purifed enzyme and Km concentrations of substrates (counterscreen for miR-21 project)). Conditions: purified FLuc, luminescence inhibition; series mostly up to 57.5 µM; activity change, negative = inhibition: at the top concentration.
How it was run: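 Purified P. pyralis luciferase (10nM final) with 10uM D-luciferin and 10uM ATP (Km levels) in 50mM Tris acetate pH 7.5, 10mM Mg acetate, 0.01% Tween-20, 0.05% BSA; qHTS 6-point titration, ~60 µM downward; luminescence read.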
Further: nearly all actives have a fitted effect of over 55% in size.
Potency means the concentration at half of the fitted maximal effect; tags describe the fitted curve by direction and shape.
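Wherever activity change, negative = inhibition is given: plate controls were vehicle for no effect and reference inhibitor for full effect.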

UniProt P08659, sequence (P08659 whole entry, looked up): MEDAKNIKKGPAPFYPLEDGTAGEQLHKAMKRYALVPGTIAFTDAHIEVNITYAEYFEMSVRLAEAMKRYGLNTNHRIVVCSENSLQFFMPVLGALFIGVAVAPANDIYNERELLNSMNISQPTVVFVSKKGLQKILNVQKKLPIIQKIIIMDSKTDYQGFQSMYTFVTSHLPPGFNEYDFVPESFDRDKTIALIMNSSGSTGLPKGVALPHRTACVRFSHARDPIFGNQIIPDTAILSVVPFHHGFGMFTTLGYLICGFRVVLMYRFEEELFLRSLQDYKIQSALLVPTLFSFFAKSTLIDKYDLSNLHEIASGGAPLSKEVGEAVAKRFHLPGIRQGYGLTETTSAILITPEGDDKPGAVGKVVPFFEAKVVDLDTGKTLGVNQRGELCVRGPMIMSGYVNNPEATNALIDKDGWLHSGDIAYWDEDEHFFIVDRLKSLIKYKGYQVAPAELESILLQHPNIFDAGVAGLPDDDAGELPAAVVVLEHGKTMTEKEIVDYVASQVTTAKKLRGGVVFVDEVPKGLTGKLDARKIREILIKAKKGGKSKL

Q: With Clc1ccccc1-c1nnc2sc(-c3ccc4c(c3)OCO4)nn12 as the compound, how does the Potency read?
A: The Potency was inconclusive: 23.9 µM [inhibitor, single point].

Q: With CC(C)(C)C1CCc2c(sc(NC(=O)Cn3nnc(-c4ccccc4Cl)n3)c2C#N)C1 (configuration not stated) as the compound, how does the Potency read?
A: Its Potency is inconclusive: 9.53 µM [inhibitor, partial curve, poor fit].

Q: CCc1nc(NCCCn2ccnc2)c2oc3ccccc3c2n1 was tested. Which Potency did it give?
A: Its Potency is inconclusive: 23.9 µM [inhibitor, partial curve].

Q: How did the Potency turn out when OCCNc1nc(Nc2ccccc2)nc2ccccc12 was run?
A: The Potency was inconclusive: 37.9 µM [inhibitor, single point].

Q: With O=C1c2ccccc2CCC1C(O)c1ccccn1 (configuration not stated) as the compound, how does the Potency read?
A: The Potency was active: 15.1 µM.

Q: For Cc1cccc(N2CCN(C(=O)CS(=O)(=O)c3cccc4nsnc34)CC2)c1C, which Potency is on record?
A: Its Potency is inconclusive: 26.9 µM [inhibitor, partial curve, poor fit].

Q: N#C/C(C(=O)N1CCCCC1)=C1\Nc2ccccc2S1 was tested. Which Potency did it give?
A: Its Potency is active: 10.7 µM.

Q: With Cc1ccc(Cn2cccc(-c3nc4ccccc4s3)c2=O)cc1 as the compound, how does the Potency read?
A: Its Potency is active: 2.13 µM.

Q: How did the Potency turn out when Cc1ccc(CNc2ccc(-c3nc(-c4ccncc4)no3)cc2[N+](=O)[O-])cc1 was run?
A: The Potency was inconclusive: 21.3 µM [inhibitor, partial curve].

Q: For C=CCSC1=N/C(=C\c2sccc2C)C(=O)S1, which “activity change, negative = inhibition” value is on record?
A: Its value is inactive: -13%.

Q: With O=C(CCC(=O)Nc1ccc(F)cc1)N/N=C/c1ccccc1O as the compound, how does the Potency read?
A: The Potency was inconclusive: 37.9 µM [inhibitor, partial curve, poor fit].

Q: How did the “activity change, negative = inhibition” value turn out when O=C(COc1ccc(/C=N/NC(=O)C(=O)N2CCCCCC2)cc1)Nc1ccccc1Cl was run?
A: The value was inactive: -9.18%.

Q: For Cc1nn2cc(-c3ccc(Cl)cc3)cnc2c1Br, which Potency is on record?
A: Its Potency is inconclusive: 0.601 µM [inhibitor, full curve].

Q: Cc1ccccc1Nc1c(-c2c(F)cccc2Cl)nc2ccc(Br)cn12 was tested. Which “activity change, negative = inhibition” value did it give?
A: The value was inactive: 0.707%.

Q: How did the Potency turn out when COc1cccc(/C=C2\SC(=S)N(NS(=O)(=O)c3ccccc3)C2=O)c1OC was run?
A: The Potency was inconclusive: 37.9 µM [inhibitor, single point].

Q: Which “activity change, negative = inhibition” value does the source give for Cc1cc(Cl)c2oc(C(=O)NCCN3CCCCC3CO)c(C)c2c1 (configuration not stated) here?
A: Its value is inactive: -16.1%.

Q: With O=C(NCc1ccco1)c1ccc(COc2ccccc2[N+](=O)[O-])o1 as the compound, how does the “activity change, negative = inhibition” value read?
A: The value was inactive: 0.0798%.

Q: With Cc1ccc(CC(=O)Nc2cccc(C)n2)cc1 as the compound, how does the Potency read?
A: The Potency was inconclusive: 15.1 µM [inhibitor, partial curve].

Q: For Cc1ccc(-n2ncc3c(NCCCN4CCOCC4)ncnc32)cc1C, which Potency is on record?
A: Its Potency is inconclusive: 19 µM [inhibitor, partial curve].

Q: O=C(c1ccccc1Cl)N1CCN(C(=O)C2CCCO2)CC1 (configuration not stated) was tested. Which “activity change, negative = inhibition” value did it give?
A: Its value is inactive: 0.596%.

Q: How did the Potency turn out when C#CCOCCOCCOCCNc1nc(N2CCN(C(=O)CCCCCCCCCCNC(=O)[C@@H](CCSC)n3cc(CCO)nn3)CC2)nc(N2CCN(C(=O)CCCCCCCCCCNC(=O)[C@H](CCCN=C(N)N)n3cc(C[C@@H](C)CC)nn3)CC2)n1 was run?
A: Its Potency is inconclusive: 33.8 µM [inhibitor, single point].

Q: How did the Potency turn out when CC1(C)CC(=O)CC(=O)/C1=N\Nc1c(Cl)cc(Cl)cc1Cl was run?
A: The Potency was inconclusive: 26.9 µM [inhibitor, partial curve, poor fit].

Q: Which Potency does the source give for COc1ccc2c(n1)Sc1nc3ccccc3nc1N2 here?
A: Its Potency is active: 2.13 µM.

Q: How did the Potency turn out when CC(NCc1ccc(F)cc1)C(=O)NC1CCCCC1 (configuration not stated) was run?
A: The Potency was inconclusive: 26.9 µM [inhibitor, partial curve, poor fit].

Q: Cc1ccc(C(=O)Nc2nc(=O)[nH]s2)cc1 was tested. Which Potency did it give?
A: The Potency was active: 23.9 µM.

Q: For Cc1ccccc1OCC(=O)Nc1ccc2oc(=O)ccc2c1, which “activity change, negative = inhibition” value is on record?
A: The value was inactive: 3.16%.

Q: CCOc1ccc(C2NC(=O)NC(C)=C2C(=O)OC)cc1C (configuration not stated) was tested. Which Potency did it give?
A: Its Potency is inconclusive: 26.9 µM [inhibitor, partial curve, poor fit].

Q: Which “activity change, negative = inhibition” value does the source give for Cn1c(=O)c2c(nc(Br)n2C/C=N/NC(N)=S)n(C)c1=O here?
A: Its value is inactive: 0.296%.

Q: With COCc1nnc(NC(=O)c2cc(OC)c(OC)c(OC)c2)s1 as the compound, how does the “activity change, negative = inhibition” value read?
A: Its value is inactive: 0.314%.

Q: For Cc1cccc(C2=N/C(=C/c3cccs3)C(=O)O2)c1, which Potency is on record?
A: The Potency was active: 2.69 µM.

Q: Which Potency does the source give for N#Cc1ccc(C(=O)Nc2nc3ccccc3[nH]2)cc1 here?
A: Its Potency is active: 2.39 µM.

Q: For CCC(=O)Nc1ccc2c(c1)C(=O)c1ccccc1C2=O, which Potency is on record?
A: The Potency was active: 3.79 µM.

Q: How did the Potency turn out when O=C(Nc1ccc2ncccc2c1)c1cc(Cl)ccc1Cl was run?
A: Its Potency is inconclusive: 26.9 µM [inhibitor, partial curve].

Q: For CCOC(=O)C1=C(O)/C(=C\c2sccc2C)N=C1C, which Potency is on record?
A: The Potency was inconclusive: 26.9 µM [inhibitor, single point].

Q: With O=C(Nc1cccc(S(=O)(=O)N2CCCC2)c1)c1ccc2c(c1)OCO2 as the compound, how does the Potency read?
A: The Potency was inconclusive: 19 µM [inhibitor, single point].

Q: With O=C(Nc1ccccc1)c1ncoc1-c1ccc(Cl)cc1 as the compound, how does the Potency read?
A: Its Potency is inconclusive: 3.01 µM [inhibitor, partial curve, poor fit].

Q: O=C(CCC(=O)Nc1ccccc1)N/N=C/c1ccccc1F was tested. Which Potency did it give?
A: The Potency was inconclusive: 23.9 µM [inhibitor, single point].

Q: For Cc1cc(C)cc(N(C(=O)c2csnn2)C(C(=O)NC(C)(C)C)c2ccncc2)c1 (configuration not stated), which Potency is on record?
A: The Potency was inconclusive: 0.012 µM [inhibitor, full curve].

Q: With O=C(CCn1c(=O)c2cccn2c2cccnc21)N1CCN(c2cccc(C(F)(F)F)c2)CC1 as the compound, how does the “activity change, negative = inhibition” value read?
A: The value was inactive: 1.29%.

Q: For CC(C)NC(=O)c1ccc(Cn2c(SCc3ccc(F)cc3)nc3cccnc32)cc1, which Potency is on record?
A: Its Potency is inconclusive: 1.2 µM [inhibitor, full curve].

Q: Which “activity change, negative = inhibition” value does the source give for CCC1CCCCN1C(=O)Nc1cccc(NC(=O)N2CCCCC2CC)c1 (configuration not stated) here?
A: Its value is inactive: -7.69%.

Q: With COc1ccc(C2=CC(c3cc(Br)ccc3F)n3c(nc4ccccc43)N2)cc1 (configuration not stated) as the compound, how does the Potency read?
A: Its Potency is active: 4.26 µM.

Q: For COc1ccc(-c2cc(C(=O)NCc3cn(C)nc3C)c3ccccc3n2)cc1OC, which Potency is on record?
A: The Potency was inconclusive: 19 µM [inhibitor, partial curve].

Q: With Cc1ccc2nc(SCC3CCCCO3)[nH]c2c1 (configuration not stated) as the compound, how does the Potency read?
A: The Potency was active: 1.2 µM.

Q: Which Potency does the source give for Cc1ccc(C(=O)N/C(=C\c2cccc([N+](=O)[O-])c2)C(=O)OCN2C(=O)c3ccccc3C2=O)cc1 here?
A: The Potency was inconclusive: 10.7 µM [inhibitor, partial curve, poor fit].

Q: With CCC(=O)Nc1cccc(NC(=S)NC(=O)c2ccc(Cl)cc2)c1 as the compound, how does the “activity change, negative = inhibition” value read?
A: Its value is inactive: -20.5%.

Q: For C(=N\NC1=Nc2cccc3cccc1c23)/c1ccccn1, which Potency is on record?
A: Its Potency is active: 1.51 µM.
